This is an account of results in the supplement of paper PMC5998384.

Series [1] deals with HeLa Kyoto. Nature of the series: solubility in G1/S (NP-40 vs SDS abundance) (log2 ratio); higher = more soluble. The settings on record: cell cycle stage: G1/S.
Series [2] has as its system HeLa Kyoto. Nature of the series: solubility change mitosis vs G1/S (difference of NP-40 vs SDS log2 ratios) (log2 ratio difference); higher = more soluble in mitosis.
Series [3] has as its system HeLa Kyoto. Nature of the series: thermal stability score vs G1/S (z-score of summed log2 fold changes over temperatures); higher = more thermally stable than in G1/S.
Series [4] deals with HeLa Kyoto. Put plainly: melting temperature (median over replicates), in situ; higher = more thermally stable.
[5] abbreviates: cell cycle stage: early G1 (4.5 h after nocodazole release).
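Wherever melting temperature (median over replicates), in situ is given: HeLa Kyoto cells synchronized by double thymidine or nocodazole block, proteins quantified by TMT10plex mass spectrometry, three independent biological replicates.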
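Wherever solubility change mitosis vs G1/S (difference of NP-40 vs SDS log2 ratios) is given: synchronized HeLa Kyoto cells (double thymidine block for G1/S, nocodazole release for mitosis), protein amounts in NP-40 versus SDS lysates quantified by mass spectrometry, three biological replicates.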
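Wherever solubility in G1/S (NP-40 vs SDS abundance) is given: HeLa Kyoto cells arrested at G1/S by double thymidine block, proteins quantified by TMT10plex mass spectrometry in mild NP-40 versus SDS extracts, three biological replicates.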
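Wherever thermal stability score vs G1/S (z-score of summed log2 fold changes over temperatures) is given: synchronized HeLa Kyoto cells, proteins quantified by TMT10plex mass spectrometry, three biological replicates, mitosis taken 0.5 h after nocodazole release, G1/S directly after double thymidine block.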

Turning to HSP90B1 (sequence left out), the “solubility in G1/S (log2)” value in the series on HeLa Kyoto [1] is -0.00846. Besides, in the series with HeLa Kyoto [2], the “solubility change mitosis (log2)” value is -0.0824. Moreover, the figures for the thermal stability score with HeLa Kyoto [3] (setting [5]) and in the series with HeLa Kyoto [3] (cell cycle stage: mitosis) were 3.97 and 4.85, respectively. For the same substance, the melting temperature turned out to be 54.1 °C in the series on HeLa Kyoto [4] (cell cycle stage: G1/S) and 55.4 °C with HeLa Kyoto [4] (cell cycle stage: mitosis).
For IGF2R (sequence left out), the “solubility in G1/S (log2)” value in the series with HeLa Kyoto [1] is -0.085. Moreover, in the series with HeLa Kyoto [2], the “solubility change mitosis (log2)” value was -0.0908. The thermal stability score with HeLa Kyoto [3] (setting [5]) was -2.44; in the series with HeLa Kyoto [3] (cell cycle stage: mitosis) it was -3.51. The values for the melting temperature in the series on HeLa Kyoto [4] (cell cycle stage: G1/S) and in the series on HeLa Kyoto [4] (cell cycle stage: mitosis) were 56.9 °C and 56.4 °C, respectively.
ITGB1 (sequence left out): the “solubility in G1/S (log2)” value with HeLa Kyoto [1] is -0.0956. The “solubility change mitosis (log2)” value in the series with HeLa Kyoto [2] was -0.0191. Further, the thermal stability score in the series on HeLa Kyoto [3] (setting [5]) was -1.06; in the series with HeLa Kyoto [3] (cell cycle stage: mitosis), -0.105. Further, the values for the melting temperature in the series on HeLa Kyoto [4] (cell cycle stage: G1/S) and in the series with HeLa Kyoto [4] (cell cycle stage: mitosis) were 56.6 °C and 57.9 °C, respectively.
MSH6 (sequence left out): in the series on HeLa Kyoto [1], the “solubility in G1/S (log2)” value was -0.194. Further, the “solubility change mitosis (log2)” value in the series on HeLa Kyoto [2] is -0.117. In addition, the thermal stability score worked out at 3.69 in the series with HeLa Kyoto [3] (setting [5]) and 7.53 in the series on HeLa Kyoto [3] (cell cycle stage: mitosis). For the same substance, the values for the melting temperature in the series on HeLa Kyoto [4] (cell cycle stage: G1/S) and in the series on HeLa Kyoto [4] (cell cycle stage: mitosis) were 47.7 °C and 49.2 °C, respectively.
In the case of “MTEESSDVPRELIESIKDVIGRKIKISVKKKVKLEVKGDKVENKVLVLTSCRAFLVTARIPTKLELTFSYLEIHGVVCSKSAQMIVETEKCSISMKMASPEDVSEVLAHIGTCLRKIFPGLSPVRIMKKVSMEPSERLASLQALWDSQTVAEQGPCGGFSQMYACVCDWLGFSYREEVQWDVDTIYLTQDTRELNLQDFSHLDHRDLIPIIAALEYNQWFTKLSSKDLKLSTDVCEQILRVVSRSNRLEELVLENAGLRTDFAQKLASALAHNPNSGLHTINLAGNPLEDRGVSSLSIQFAKLPKGLKHLNLSKTSLSPKGVNSLSQSLSANPLTASTLVHLDLSGNVLRGDDLSHMYNFLAQPNAIVHLDLSNTECSLDMVCGALLRGCLQYLAVLNLSRTVFSHRKGKEVPPSFKQFFSSSLALMHINLSGTKLSPEPLKALLLGLACNHNLKGVSLDLSNCELRSGGAQVLEGCIAEIHNITSLDISDNGLESDLSTLIVWLSKNRSIQHLALGKNFNNMKSKNLTPVLDNLVQMIQDEESPLQSLSLADSKLKTEVTIIINALGSNTSLTKVDISGNGMGDMGAKMLAKALQINTKLRTVIWDKNNITAQGFQDIAVAMEKNYTLRFMPIPMYDASQALKTNPEKTEDALQKIENYLLRNHETRKYLQEQAYRLQQGIVTSTTQQMIDRICVKVQDHLNSLRNCGGDAIQEDLKSAERLMRDAKNSKTLLPNLYHVGGASWAGASGLLSSPIQETLESMAGEVTRVVDEQLKALLESMVDAAENLCPNVMKKAHIRQDLIHASTEKISIPRTFVKNVLLEQSGIDILNKISEVKLTVASFLSDRIVDEILDALSHCHHKLADHFSRRGKTLPQQESLEIELAEEKPVKRSIITVEELTEIERLEDLDTCMMTPKSKRKSIHSRMLRPVSRAFEMEFDLDKALEEVPIHIEDPPFPSLRQ[skipping about 120 residues]KSERPPTILMTEEPSSPKGAVRSPPVDCPRKDTKAAEHNGNSERIEEIKTPDSFEESQGEEIGKVERSDSKSSPQAGRRYGVQVMGSGLLAEMKAKQEKRAACAQKKLGNDAVSQDSSSPALSGVERSDGGGAVPKLHPGLPENRFGLGTPEKNTKAEPKAEAGSRSRSSSSTPTSPKPLLQSPKPSLAARPVIPQKPRTASRPDDIPDSPSSPKVALLPPVLKKVPSDKERDGQSSPQPSPRTFSQEVSRRSWGQQAQEYQEQKQRSSSKDGHQGSKSNDSGEEAEKEFIFV [LRRC16A]”, the “solubility in G1/S (log2)” value in the series on HeLa Kyoto [1] was -0.0493. The “solubility change mitosis (log2)” value in the series with HeLa Kyoto [2] was -0.11. The results for the thermal stability score in the series on HeLa Kyoto [3] (setting [5]) and with HeLa Kyoto [3] (cell cycle stage: mitosis) were -0.67 and 1.41, respectively. Besides, the melting temperature in the series with HeLa Kyoto [4] (cell cycle stage: G1/S) was found to be 54.5 °C; with HeLa Kyoto [4] (cell cycle stage: mitosis) it was 54.6 °C.
For the substance MYH10 (sequence left out), the “solubility in G1/S (log2)” value in the series on HeLa Kyoto [1] was -0.539. Moreover, the “solubility change mitosis (log2)” value in the series on HeLa Kyoto [2] is 0.00352. Further, the thermal stability score is -1.09 with HeLa Kyoto [3] (setting [5]) and -1.94 in the series with HeLa Kyoto [3] (cell cycle stage: mitosis). Also, the melting temperature in the series on HeLa Kyoto [4] (cell cycle stage: G1/S) is 52 °C; in the series on HeLa Kyoto [4] (cell cycle stage: mitosis), 51.7 °C.
In the case of NDUFA10 (sequence left out), the “solubility in G1/S (log2)” value in the series on HeLa Kyoto [1] amounted to 0.0364. Also, the “solubility change mitosis (log2)” value in the series with HeLa Kyoto [2] turned out to be 0.00144. Besides, the thermal stability score with HeLa Kyoto [3] (setting [5]) is -0.476; with HeLa Kyoto [3] (cell cycle stage: mitosis), 0.657. The melting temperature in the series with HeLa Kyoto [4] (cell cycle stage: G1/S) was 50 °C; with HeLa Kyoto [4] (cell cycle stage: mitosis), 50.2 °C.
Turning to NDUFS1 (sequence left out), the “solubility in G1/S (log2)” value in the series on HeLa Kyoto [1] was determined as 0.0623. In the series with HeLa Kyoto [2], the “solubility change mitosis (log2)” value was -0.0606. The thermal stability score was -0.389 with HeLa Kyoto [3] (setting [5]) and -0.12 in the series on HeLa Kyoto [3] (cell cycle stage: mitosis). Moreover, the melting temperature in the series on HeLa Kyoto [4] (cell cycle stage: G1/S) is 51.4 °C; in the series with HeLa Kyoto [4] (cell cycle stage: mitosis), 51.8 °C.
As for NEDD8 (sequence left out), the “solubility in G1/S (log2)” value in the series with HeLa Kyoto [1] was -0.415. Further, the “solubility change mitosis (log2)” value in the series with HeLa Kyoto [2] was 0.312. Further, the thermal stability score in the series on HeLa Kyoto [3] (setting [5]) is -1.8; in the series with HeLa Kyoto [3] (cell cycle stage: mitosis), -2.5. The substance further yielded a melting temperature in the series on HeLa Kyoto [4] (cell cycle stage: G1/S) of 54.3 °C.
For the substance PSMC4 (sequence left out), in the series with HeLa Kyoto [1], the “solubility in G1/S (log2)” value stood at 0.316. The “solubility change mitosis (log2)” value in the series on HeLa Kyoto [2] was -0.138. For the same substance, the thermal stability score in the series on HeLa Kyoto [3] (setting [5]) was determined as 1.38; in the series with HeLa Kyoto [3] (cell cycle stage: mitosis), 0.496. In addition, the melting temperature came to 53.9 °C in the series on HeLa Kyoto [4] (cell cycle stage: G1/S) and 53.5 °C in the series on HeLa Kyoto [4] (cell cycle stage: mitosis).
SNRPA (sequence left out): the “solubility in G1/S (log2)” value with HeLa Kyoto [1] was 0.194. For the same substance, the “solubility change mitosis (log2)” value in the series with HeLa Kyoto [2] amounted to 0.241. Further, the thermal stability score with HeLa Kyoto [3] (setting [5]) is -2.56; in the series with HeLa Kyoto [3] (cell cycle stage: mitosis), -4.69. In addition, the melting temperature stood at 55.8 °C in the series on HeLa Kyoto [4] (cell cycle stage: G1/S) and 55.2 °C in the series on HeLa Kyoto [4] (cell cycle stage: mitosis).
Regarding STIM1 (sequence left out), the “solubility in G1/S (log2)” value with HeLa Kyoto [1] worked out at 0.408. Besides, in the series with HeLa Kyoto [2], the “solubility change mitosis (log2)” value is 0.159. Further, the thermal stability score in the series with HeLa Kyoto [3] (setting [5]) amounted to 0.613; with HeLa Kyoto [3] (cell cycle stage: mitosis), 0.513. Besides, the melting temperature in the series with HeLa Kyoto [4] (cell cycle stage: G1/S) stood at 52.3 °C; with HeLa Kyoto [4] (cell cycle stage: mitosis), 52.2 °C.
TFG (sequence left out): in the series with HeLa Kyoto [1], the “solubility in G1/S (log2)” value was 0.0963. The “solubility change mitosis (log2)” value with HeLa Kyoto [2] came to 0.0166. For the same substance, the thermal stability score was 0.358 with HeLa Kyoto [3] (setting [5]) and -1.66 in the series with HeLa Kyoto [3] (cell cycle stage: mitosis). Further, the melting temperature in the series on HeLa Kyoto [4] (cell cycle stage: G1/S) was found to be 56.1 °C; in the series on HeLa Kyoto [4] (cell cycle stage: mitosis), 56.3 °C.
As for TPI1 (sequence left out), in the series with HeLa Kyoto [1], the “solubility in G1/S (log2)” value was determined as 0.483. Besides, in the series with HeLa Kyoto [2], the “solubility change mitosis (log2)” value worked out at 0.0652. Moreover, the thermal stability score in the series on HeLa Kyoto [3] (setting [5]) was -1.62; in the series with HeLa Kyoto [3] (cell cycle stage: mitosis) it was -2.8. Besides, the values for the melting temperature with HeLa Kyoto [4] (cell cycle stage: G1/S) and with HeLa Kyoto [4] (cell cycle stage: mitosis) were 57.2 °C and 56.4 °C, respectively.
